The list shows a part of the results.
system: PF3D7_0420300 AP2 domain 1 (GST-tagged); test: gcPBM binding intensity (ln(normalized median fluorescence intensity)); higher = stronger DNA binding
Outline: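 After 1 h on an Agilent 4 × 180k array of primer-extended double-stranded 36-bp intergenic genomic probes and negative controls, bound GST-tagged P. falciparum DNA-binding domains were detected with Alexa488 anti-GST antibody and scanned at 488 nm. The domains had been expressed in E. coli, and binding took place in 1× PBS with 1% milk, 0.2 mg/ml BSA, 0.5% salmon testes DNA and 0.03% Triton X-100. Binding intensity is the highest Masliner-normalised natural-log median intensity across replicate spots of either probe orientation.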

Sequence | gcPBM binding intensity (ln)
TATATAAATATTCGTAGTACAATACAATTATAAGTA [XGTACX_site3068] | 9.15
AATTTGTAAAATAAGGTGCGTATAAAAAATTATATT [GTGCAC_site9676] | 9.36
ATAAACATCGGTAGTACACACATTCATGTACTTGAT [CACACA_site3037] | 9.58
ATTTAATAAAAAAAAAAAATATTGTAGAATATGATG [GTGCAC_negctrl_site195] | 9.17
CAAATGGTAAATGAAAGTACAAATTGTTTTGATTAA [XGTACX_site1536] | 9.09
ATATACATATTCTTGTGTACATAAAAATTTATATAT [XGTACX_site8726] | 9.23
AGAATATTTATATGATGTACTTATATATATATATAT [XGTACX_site3021] | 9.24
CAGAAATATTAATGCTGTACGGAATACATATATTTT [XGTACX_site539] | 9.24
ATTTTAATGGGACATGCATGGGACAAACTACAAATT [TGCATGCA_site853] | 9.44
TATATATTAAAACACACACACATATATATATATATA [CACACA_site3787] | 9.67
AATAAAAACTACATGTGTACATAATAAATACATATA [XGTACX_site755] | 9.53
TTTTTTCTTTTCTTTTTATTTTATTTTGTTTTATTT [CACACA_negctrl_site799] | 9.61
ATAATCCAAAAAAATCAAATAAAATAAAATAAAATA [CACACA_negctrl_site449] | 9.16
TAAAAATATTTAAACTGTACTATTTTATGTTAAATG [XGTACX_site6620] | 9.03
TGAACCAGATTTAGAAGTACTAAATATTACATACAT [XGTACX_site2437] | 9.13
TATATATTAGAAGATAGTACATATATATTTATTAAT [XGTACX_site1011] | 9.16
GCTCAATGTTTTACATGTACATATATATATATATAT [XGTACX_site8210] | 9.44
TGGTGATCAAAATATACATGCATATGTTCTGTTATT [TGCATGCA_site614] | 9.37
TATGATATCTATAATACACACATATACATAAGATCT [CACACA_site6652] | 9.54
TTAATATAACTTTTTGCACACTTAATTTTTTTTTTT [CACACA_site3364] | 9.44
TTATATAAAACATTAACACACAAAGAAAAAAAATTA [CACACA_site1793] | 9.73
TATTTTTACCCATAAAGTACACATAAATATAAAATA [XGTACX_site177] | 9.17

Sequence | gcPBM binding intensity (ln)
TATATATCTATATATTGTACATATGTTTGTATGTGT [XGTACX_site7420] | 9.42
ATATAAATCATTGGTTGTACATATAATATTTTATAA [XGTACX_site925] | 9.15
TAATATTTCTTATTTTATATTTGTATATGAATGGAT [XGTACX_negctrl_site278] | 9.17
CAAGTTCAAAATACAAGGAAGAAACAAAACTTGGCG [GTGCAC_negctrl_site600] | 9.55
ATAATATAATATAAAACACACATATGTACCTTCTAA [CACACA_site2761] | 9.65
TAAAAATATCTGTATACACACATATATATATATATA [CACACA_site6042] | 9.37
AAAAAAAAAAAAAAAAGTACAAATCTTTATTTATTA [XGTACX_site3305] | 8.75
AAAACAAATGCTTAAAGTACTTATTATTTTTCTTTT [XGTACX_site6324] | 9.22
TTCCTACTATTCAAACGTACAAAATATTTAAATAAT [XGTACX_site700] | 9.08
TATTATAAAACATTATGTACATATTCTGAAAAATAG [XGTACX_site6577] | 9.09
CAAAATAAAAAATTCACACACATATATATATATATA [CACACA_site2088] | 9.43
TATTTCTTATTTATTTTTTAAGGAAATTAAAGATTT [CACACA_negctrl_site258] | 8.66
AAAAATATGCTTCCATGTACTTAAAAAAAAAATTTA [XGTACX_site3617] | 8.95
ACGTTAGGCTTATTTGCACACTTGTATTAAAATTTT [CACACA_site4854] | 9.49
TCAACTTGATTTATATGTACACATATAAGTAATTAT [XGTACX_site1798] | 9.16
AAAAAAAATTTTCTTCTGTTGTATTTTTTATACGTT [GTGCAC_negctrl_site477] | 9.39
TATACAAACTATGATGCACACATATATATATGTATA [CACACA_site8327] | 9.39
AAAAAAAAGAAAAAAACACACAATGGAAAAAATGTA [CACACA_site3675] | 9.73
TATTTAGAAATAAATACACACATACATTTTTGTATA [CACACA_site4557] | 9.32
GTTTATTTTTTCATTTGTACACATAAATAAATATAT [XGTACX_site7752] | 9.39
GGTATATATTCTATCACACATATTTCCATGAAAATA [CACACA_site4728] | 9.42
TTAATTATATTATGCACACACAATTGGAAAAAAAAT [CACACA_site1958] | 9.64

Sequence | gcPBM binding intensity (ln)
GAAAAACAAATATATTAACACACAAACATATAAACA [CACACA_site9315] | 9.97
ATGAAAAAGTGCTGGATTCTAAAGAAAAAAAAAAAA [CACACA_negctrl_site962] | 8.85
AAATATTGTTTTTTATGTACTTATTTTTATTTATTT [XGTACX_site3481] | 9.48
ATAAAATCAACAAATCAGGATGTCACGTAAATATCA [CACACA_negctrl_site1009] | 9.61
ATATTTTATATATTTGTGCACAATATTATAATATAT | 9.19
AAAAAAAAAAAAAAAAGTACACATAATTGTATATGT [XGTACX_site6339] | 9.21
TTACATATATTGGGGTGTACATATATTTTCCTTCAC [XGTACX_site6224] | 9.41
AAATCATATTCTTATTTTATTTTTTTTATTTTTTAT [XGTACX_negctrl_site166] | 9.46
GTTATATGAACTTATATACACACCATTTTTGTAAAT [CACACA_site695] | 9.44
TGTAGATATTTTTGGGGTACTTTATAAAGAACTAGT [XGTACX_site5635] | 9.1
AAAAAAATTAAATGGGGTACAATAAGGGTCAAATAT [XGTACX_site8669] | 9.79
GGATAATCATACGAAGCATGCTGAATTTCCAAATAA [TGCATGCA_site1013] | 9.17
TTTTATTATATATATTGTACATATATTTTTATTTTT [XGTACX_site1564] | 9.35
AAAAAAAAAAATGGCTGTACATAATATTTAAATAGG [XGTACX_site4286] | 9.36
ATATTTATAACTTGGTGTACTTTGAAAAAAAAAAAA [XGTACX_site5194] | 8.87
AAAAAAAAAAAAAACACACATACATACATACATATA [CACACA_site4121] | 9.74
ATAATTTTTTAGATCACACATATAAATAAATAAATA [CACACA_site5175] | 9.1
TTATATTAGCCGATGGTGCATATATTTATAGGAAAA [GTGCAC_site9518] | 8.95
ACATATTTATATGTCTGTACAAATATGCAATTTTTT [XGTACX_site5516] | 9.08
TTAGATAGATTTGTACGTACTTATTATAACGTATCA [XGTACX_site5067] | 8.95
AATTTATAAATAATTAATTTGATAAATTATAAAGGG [GTGCAC_negctrl_site544] | 8.93
TATTTTGTATTCATTTGTCACATATAATAGATAGGA [TGCATGCA_negctrl_site9] | 9.1

Sequence | gcPBM binding intensity (ln)
AATATATGTATATCCACACACATATATATATATATA [CACACA_site1633] | 9.52
ATAGATATAACATATGCATGTAAAATATAACCACTC [TGCATGCA_site60] | 9.55
TGTGCGGAAATAAGTGCACACATAGATATATGTATT [CACACA_site9227] | 9.37
TTATACGAAGTACGTACACACACTTATATGTTACTA [CACACA_site4019] | 9.63
AATAAATAGAAAGAGGTGCTACATTATATTATTTAT | 9.37
TACAAAAATATATAAACACACAAATATAATATATAT [CACACA_site2942] | 9.74
ATAAATCAAATGCACACACACAAAAAAAAAAAAAAA [CACACA_site6221] | 9.77
TAATAAATGACAAATTAACACACATATATTATATAT [CACACA_site9294] | 9.67
CGCTCTCTTTAATATTGTACATATATATTATATATA [XGTACX_site7017] | 9.41
TATATATAATATTTTTCACACACCATTTCCTTAAAC [CACACA_site1341] | 9.48
TGTATCTATAATAAAACACACATTTTTAATGTGCTC [CACACA_site6788] | 9.23
TTTTTTTTTTTTTTTTGTACATAATAAATGTTCTTA [XGTACX_site6754] | 8.64
AAAATAACATAAAAGAGTACTAAACCAAGATCAAAT [XGTACX_site7973] | 9.78
TATATTTATATTCTTACATTTTTTATGTTTTTTTTT [CACACA_negctrl_site1017] | 9.24
GTCATATTATTCTTTTCACACACGCGTTAATAATAA [CACACA_site9302] | 9.89
TATTATAATATGTAGCGTACATTTTTTCTTTCTTTT [XGTACX_site7831] | 9.18
TATAAATATATATATACACACACATACACAAAAAAA [CACACA_site9191] | 10.2
ATATATTATATGTACACACACATATAAGGGATTATA [CACACA_site5] | 9.65
AAAAATATGAAGACACAATATAGAAATAAAAATATA [XGTACX_negctrl_site244] | 9.44
TATTACTTGATATATACACACATATAACATAAATGC [CACACA_site7783] | 9.45
TAGAATAAACCAAGAAGTACTGTTTAATGAAAAGTA [XGTACX_site5712] | 9.37
ATACCTAAAAAATATACACACATATTTATAAATATA [CACACA_site7260] | 9.6
